In all, about 310,000 compounds went through this assay and about 14,000 (4.5%) showed an effect of 50% or more. Effects have a minus sign here. The list shows a part of the results.

These results are taken from article PMC4336329 (PLoS ONE, 2015).
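Also: peak tail current of the secondary pulse compared with the same well before compound.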

In this test the target is human ether-à-go-go-related gene (hERG) potassium channel (human, UniProt Q12809). The test can be described thus: primary screen, population patch clamp on CHO cells stably expressing hERG.
human ether-à-go-go-related gene (hERG) potassium channel, sequence (Q12809 whole entry, looked up): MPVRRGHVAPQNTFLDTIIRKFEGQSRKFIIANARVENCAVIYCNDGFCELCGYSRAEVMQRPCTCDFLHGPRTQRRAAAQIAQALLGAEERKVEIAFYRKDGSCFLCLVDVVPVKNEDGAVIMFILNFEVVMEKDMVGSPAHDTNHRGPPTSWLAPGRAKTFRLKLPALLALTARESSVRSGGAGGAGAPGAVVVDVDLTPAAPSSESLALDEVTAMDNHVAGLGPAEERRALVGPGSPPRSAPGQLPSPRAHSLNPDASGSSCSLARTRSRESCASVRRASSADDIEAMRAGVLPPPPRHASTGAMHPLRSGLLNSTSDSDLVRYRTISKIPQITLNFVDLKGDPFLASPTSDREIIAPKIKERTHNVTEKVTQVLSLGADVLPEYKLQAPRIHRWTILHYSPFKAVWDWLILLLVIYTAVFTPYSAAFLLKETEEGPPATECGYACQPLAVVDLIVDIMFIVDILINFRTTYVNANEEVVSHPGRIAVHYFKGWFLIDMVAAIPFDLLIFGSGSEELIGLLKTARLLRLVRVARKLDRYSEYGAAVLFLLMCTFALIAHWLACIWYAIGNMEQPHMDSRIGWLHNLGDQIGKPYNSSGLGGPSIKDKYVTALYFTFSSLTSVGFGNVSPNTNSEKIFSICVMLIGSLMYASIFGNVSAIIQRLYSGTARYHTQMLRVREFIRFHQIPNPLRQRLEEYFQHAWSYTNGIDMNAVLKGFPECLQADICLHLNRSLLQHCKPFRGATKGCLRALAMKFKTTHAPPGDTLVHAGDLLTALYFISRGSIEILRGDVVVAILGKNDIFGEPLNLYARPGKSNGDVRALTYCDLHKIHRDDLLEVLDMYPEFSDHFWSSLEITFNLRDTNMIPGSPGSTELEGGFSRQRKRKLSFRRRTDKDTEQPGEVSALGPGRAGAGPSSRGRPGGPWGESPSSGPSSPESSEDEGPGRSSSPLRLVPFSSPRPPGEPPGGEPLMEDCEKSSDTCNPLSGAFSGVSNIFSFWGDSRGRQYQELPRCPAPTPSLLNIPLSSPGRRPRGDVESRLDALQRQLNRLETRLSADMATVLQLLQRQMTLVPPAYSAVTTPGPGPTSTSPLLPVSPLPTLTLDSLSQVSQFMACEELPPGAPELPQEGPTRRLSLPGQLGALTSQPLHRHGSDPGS
Regarding `O=C(NCc1ccco1)c1nc(-c2ccccc2)n(-c2ccccc2)n1`, the “hERG current change (%, negative = inhibition) at 10uM” value is reported as -17.8%. Next, `S=c1[nH]nc(COc2ccc(Cl)cc2)n1Cc1ccco1`: 7.78%; `Cc1nc2ccc(C(=O)N3CCSCC3)cc2s1`: 7.13%. As for `CC(C)NC(=S)NC1(C)CCS(=O)(=O)C1` (stereo not shown), the “hERG current change (%, negative = inhibition) at 10uM” value came to 15.2%.

In the case of `CCN(CC)c1ccc(NC(=O)c2cc3ccccc3o2)c(C)c1`, the “hERG current change (%, negative = inhibition) at 10uM” value worked out at 8.99%. Under `CCOC(=O)c1c(C)n(-c2ccc(C)cc2)c2ccc(OCC(O)CNCCCO)cc12.Cl` (stereo not shown) stands -36.3%; under `Cc1nc(N)sc1C(=O)N/N=C/c1ccc([N+](=O)[O-])cc1`, 2.89%. Under `Cl.Nc1nc2nc[nH]c2c(=O)[nH]1` stands 17.6%; under `COc1ccccc1Nc1nc(N)nc(CN(C)C2CCCCC2)n1`, -35.8%; under `CCOC(=O)c1ccc(N2C(=O)CC(N3CCC(O)(c4ccc(Br)cc4)CC3)C2=O)cc1` (stereo not shown), -21.5%. Under `CCN(CC)CCCNC(=O)c1cc2c(-c3ccc(Cl)cc3)nn(C)c2s1` stands -59.9%; under `Cc1c(S(=O)(=O)c2ccccn2)c(N)n(Cc2ccccc2)c1C`, 0.158%; under `COc1ccc(C(=O)n2nc(C#N)c(C#N)c2N)cc1`, 16.2%. Turning to `COc1cccc(C(=O)Nc2nc(-c3ccccc3)c(-c3ccccc3)o2)c1`, the “hERG current change (%, negative = inhibition) at 10uM” value is reported as -3.53%. With `COc1cccc(NC(=O)Cn2c3ccc(F)cc3c3nc4n(c(=O)c32)CCCS4)c1`, the “hERG current change (%, negative = inhibition) at 10uM” value worked out at 13.2%. As to `CC[C@H](C)[C@@H](C(=O)N1CCNCC1)n1cc([C@@H](N)CO)nn1.Cl`, the “hERG current change (%, negative = inhibition) at 10uM” value was found to be 3.65%.

As to `COc1ccccc1N1CCN(C(=O)CSc2nc(-c3ccccc3)cc(=O)[nH]2)CC1`, the “hERG current change (%, negative = inhibition) at 10uM” value worked out at 9.2%.

Regarding `O=C(NCCSc1ccccc1)c1ccc(Br)cc1`, the “hERG current change (%, negative = inhibition) at 10uM” value amounted to 13.5%. On to `CCC(c1nnc(SCC(=O)Nc2cc(Cl)ccc2C#N)n1C1CCCCC1)N(C)C` (stereo not shown), for which the “hERG current change (%, negative = inhibition) at 10uM” value is listed as -23%. Under `O=C(c1c[nH]c(=O)n(-c2ccccc2)c1=O)N1CCc2ccccc21` stands 13.3%; under `Cc1ccc(NC(=O)/C=C/c2cccc([N+](=O)[O-])c2)nc1`, 13.7%; under `O=C1CC(c2ccco2)CC(O)=C1C=Nc1ccccc1-c1ccccc1` (stereo not shown), 13.2%.

With `[N-]=C=C1C(=S)NC(=O)[C@H]([n+]2ccccc2)[C@H]1c1ccc(Cl)cc1`, the “hERG current change (%, negative = inhibition) at 10uM” value was 15.9%. For the molecule `O=S(=O)(N/N=C/c1ccc2c(c1)OCCO2)c1ccc(Cl)cc1`, the “hERG current change (%, negative = inhibition) at 10uM” value was -5.58%. Under `COc1ccccc1CNC(=O)C(=O)NCCC1CCCCN1S(=O)(=O)c1ccccc1` (stereo not shown) stands 9.87%. Next, `O=C(c1cc2cc(F)ccc2[nH]1)N1CCN(Cc2ccc3c(c2)OCO3)CC1`: -0.31%; `O=C(Nc1cccnc1)c1cccc(NC(=O)c2ccco2)c1`: -9.23%. Next, `COCCNC(=O)Cn1nc(C(F)(F)F)c(Br)c1C`: -4.61%; `COC(=O)CNC(=O)Cn1cnc2sc(C)c(S(=O)(=O)N3CCN(c4ccccc4OC)CC3)c2c1=O`: 21.8%.

As to `CC(=O)Nc1ccc(NC(=O)C2CCCN(c3ncccn3)C2)cc1` (stereo not shown), the “hERG current change (%, negative = inhibition) at 10uM” value was determined as 2.63%. Under `CC1CCCCN1CC(=O)c1c(N)n(Cc2ccccc2)c(=O)n(C)c1=O` (stereo not shown) stands -35.9%; under `O=C(Cn1nnc(-c2ccc3c(c2)OCO3)n1)NCc1ccco1`, 3%; under `Cc1oc(=O)c(NC(=O)c2cccc(Cl)c2)cc1C(=O)c1ccccc1`, 0.426%. Next, `O=S(=O)(c1ccc2ccccc2c1)N1CCOCC1`: 5.04%; `CCN(Cc1ccccc1)C(=O)COc1cc(=O)n(CC)c2ccccc12`: -2.46%; `N=c1c2c(-c3ccccc3)c(-c3ccccc3)oc2ncn1Cc1ccco1`: 0.861%. Next, `CC(C)(C)NC(=O)C1CCN(S(=O)(=O)c2cccc3nsnc23)CC1`: 1.06%; `Cc1cc(C)n(Cc2ccc(Cl)cc2Cl)c(=O)c1S(=O)(=O)c1ccccc1`: 14.7%. For the molecule `Cc1[nH]c(=O)c(C#N)c(C)c1CCC(=O)NCc1ccc(Cl)cc1`, the “hERG current change (%, negative = inhibition) at 10uM” value is given as 14.8%. Next, `C/C(=N\NC(=O)C(=O)Nc1ccc(C)c(Cl)c1)c1ccncc1`: -16.3%. `Cc1ccccc1CSc1nc2[nH]ncc2c(=O)[nH]1`: the “hERG current change (%, negative = inhibition) at 10uM” value is 16.6%. As to `CCN(CC)S(=O)(=O)c1ccc(OCC(=O)NC(=O)c2ccccc2OC)c([N+](=O)[O-])c1`, the “hERG current change (%, negative = inhibition) at 10uM” value is reported as 13.5%.

As for `C/C(=C\c1ccc(N(C)C)cc1)[N+](=O)[O-]`, the “hERG current change (%, negative = inhibition) at 10uM” value is 1.5%. Consider `CC1(c2ccc3ccccc3c2)NC(=O)N(CC(=O)N2CCN(Cc3ccccc3)CC2)C1=O` (stereo not shown), for which the “hERG current change (%, negative = inhibition) at 10uM” value is -6.05%.

Consider `COc1ccc(-[n+]2c(C)cc(/C=C3\Sc4ccccc4N3C)cc2C)cc1.[I-]`, for which the “hERG current change (%, negative = inhibition) at 10uM” value is reported as -60.2%. For the molecule `C#CCOCCOCCOCCNc1nc(N2CCN(C(=O)C([C@@H](C)CC)n3cc(C(N)CO)nn3)CC2)nc(N2CCN(C(=O)C([C@@H](C)CC)n3cc(C(N)COC(=O)C(F)(F)F)nn3)CC2)n1.Cl` (stereo partly shown), the “hERG current change (%, negative = inhibition) at 10uM” value amounted to 23.8%. Next, `CCOC(=O)c1ccccc1NC(=O)COC(=O)c1ccccc1C(=O)N(C)c1ccccc1`: -23.5%; `CC(C)[C@H](NC(=O)C1CCN(C(=O)[C@@H]2CCCN2)CC1)C(=O)NCc1ccc(F)cc1`: 23.1%. Next, `CN(C(=O)CC(NC(=O)c1ccccc1Cl)c1ccccc1)c1ccccc1` (stereo not shown): 2.21%. Next, `COc1ccccc1CNC(=O)C(=O)NCC1OCCN1S(=O)(=O)c1ccc2c(c1)OCCO2` (stereo not shown): 0.723%; `CC(=O)C1=C(C)N(CC2CC2)C(=O)N[C@H]1c1cccs1`: 4.67%; `O=C(Nc1ccccn1)C1CCN(S(=O)(=O)c2ccccc2)CC1`: -14.5%. As to `COc1ccc(NC(=O)COc2ccccc2)c(OC)c1`, the “hERG current change (%, negative = inhibition) at 10uM” value was -27.6%. Take `Cc1ccc(C)c(Oc2cc(F)nc(N)n2)c1`: the “hERG current change (%, negative = inhibition) at 10uM” value is on record as -1.39%.

On to `FC(F)(F)COc1nc(N2CCCCC2)nc(N2CCNCC2)n1`, for which the “hERG current change (%, negative = inhibition) at 10uM” value was -16.9%.

For the molecule `CC(C)(C)c1ccc(OCCCCCCN2CCNCC2)cc1`, the “hERG current change (%, negative = inhibition) at 10uM” value is on record as -0.393%. For `COc1cccc(NC(=O)CN(C)C(=O)c2ccccc2OCc2c(C)noc2C)c1`, the “hERG current change (%, negative = inhibition) at 10uM” value was -0.739%. Under `O=C(NNC(=S)Nc1ccc(F)c(Cl)c1)C1CC1` stands 12.8%. Under `CCOCCn1c(N2CCCC2)nc2c1c(=O)n(C)c(=O)n2C` stands 9.46%; under `C=CCN=C1NN=C(c2cc(C)n(CC=C)c2C)CS1`, 10.9%; under `Cc1cc(=O)oc2c(CN(CC(C)C)CC(C)C)c(O)ccc12`, -2.23%. Take `O=S(=O)(c1ccc(Oc2ccc(Br)cc2F)nc1)N1CCCCC1`: the “hERG current change (%, negative = inhibition) at 10uM” value is reported as -4.6%. Under `CCOc1ccc(Br)cc1S(=O)(=O)N1CCC(C(=O)O)CC1` stands 27.2%.

For `CC1SC(c2ccc(F)cc2)NC1=O` (stereo not shown), the “hERG current change (%, negative = inhibition) at 10uM” value is reported as 18.8%.

In the case of `Cc1nc(N)sc1N=Nc1ccc(Br)cc1`, the “hERG current change (%, negative = inhibition) at 10uM” value worked out at 7.09%.

Turning to `COc1ccc(-c2nnc(SCc3ccccc3)n2N)cc1`, the “hERG current change (%, negative = inhibition) at 10uM” value is reported as -0.729%.

As for `O=[N+]([O-])c1ccc(/C=N/N2CCN(c3ccncc3S(=O)(=O)N3CCCCC3)CC2)cc1`, the “hERG current change (%, negative = inhibition) at 10uM” value was -7.15%. Next, `CC(C)OC(=O)c1ccc(COC(=O)c2cnccn2)cc1`: -3.48%; `c1ccc2c(CSc3ncnc4nc[nH]c34)cccc2c1`: 10.6%; `O=C(O)Cn1c(=O)c2c(c3ccccc31)CCC2`: 11.9%. Under `COc1cccc(-n2nnc(S(=O)(=O)c3ccc(C)cc3)c2N)c1` stands 10.5%; under `NC1=NC(c2cn[nH]c2-c2ccc(F)cc2)n2c(nc3ccccc32)N1` (stereo not shown), 26.7%; under `Cc1[nH]c(C)c2c(=O)n(Cc3ccc(Cl)cc3)ncc12`, 6.36%. For the molecule `O=c1[nH][nH]c(=S)n1C1CCCCC1`, the “hERG current change (%, negative = inhibition) at 10uM” value stood at 24.1%. In the case of `Cc1c(N=Cc2ccc(Br)s2)cccc1[N+](=O)[O-]`, the “hERG current change (%, negative = inhibition) at 10uM” value is on record as -9.07%. On to `O=C(Nc1cc(C(F)(F)F)ccc1N1CCCC1)c1cccnc1`, for which the “hERG current change (%, negative = inhibition) at 10uM” value is -16%.

As to `O=C(O)C(=O)O.Oc1ccccc1CN1CCC(C(O)(c2ccccc2)c2ccccc2)CC1`, the “hERG current change (%, negative = inhibition) at 10uM” value is given as -68.5%. Consider `COc1ccc(/C(O)=C2/C(=O)C(=O)N(CCCN3CCOCC3)C2c2ccc(C(C)C)cc2)cc1` (stereo not shown), for which the “hERG current change (%, negative = inhibition) at 10uM” value was 24.6%.

Consider `CCCCOC(=O)Nc1ccc(C(=O)OCCC)cc1`, for which the “hERG current change (%, negative = inhibition) at 10uM” value is given as -12.9%. Next, `COc1ccccc1C(=O)NCCSCc1c(F)cccc1Cl`: -15.4%; `N#CC1(NC(=O)COC(=O)c2ccccc2[N+](=O)[O-])CCCCC1`: -5.4%; `CCN(CC)CCCNC(=O)CCC(=O)Nc1ccc2nc(N3CCCCC3)cc(C)c2c1`: 3.75%. As for `Cc1nnc(N/N=C/c2ccccc2O)n1N`, the “hERG current change (%, negative = inhibition) at 10uM” value is -7.86%. As to `O=S(=O)(Cc1ccccc1)Nc1cccc(F)c1`, the “hERG current change (%, negative = inhibition) at 10uM” value came out at 15.2%. `O=C(CNc1ccccc1Cl)N/N=C1\CCCc2ccccc21`: the “hERG current change (%, negative = inhibition) at 10uM” value stood at 36.1%. Next, `CC(NC(=O)COC(=O)c1cccs1)c1ccccc1` (stereo not shown): 23%; `C/C(O)=C(/N=O)C(=O)Nc1ccccc1`: 14.1%.

With `Cc1ccc(-c2noc(CCC(=O)N3CCN(c4cccc(C(F)(F)F)c4)CC3)n2)cc1`, the “hERG current change (%, negative = inhibition) at 10uM” value turned out to be 5.07%.
